Data as given in paper PMC9556525.
No constants are given. Whether binding was seen depends on the method and setting. In cells and extracts the contact can be indirect. Some entries that bind do so weakly or less than the wild type. For some assays here: Tags and fused reporters may be left off the sequences shown. One block for each molecule: values may come before it.

The chains behind the UniProt entries cited, without tags or fusion partners. Where a name states a change or a piece, a line headed by the entry shows the natural chain unless it says otherwise.
UniProt P38432: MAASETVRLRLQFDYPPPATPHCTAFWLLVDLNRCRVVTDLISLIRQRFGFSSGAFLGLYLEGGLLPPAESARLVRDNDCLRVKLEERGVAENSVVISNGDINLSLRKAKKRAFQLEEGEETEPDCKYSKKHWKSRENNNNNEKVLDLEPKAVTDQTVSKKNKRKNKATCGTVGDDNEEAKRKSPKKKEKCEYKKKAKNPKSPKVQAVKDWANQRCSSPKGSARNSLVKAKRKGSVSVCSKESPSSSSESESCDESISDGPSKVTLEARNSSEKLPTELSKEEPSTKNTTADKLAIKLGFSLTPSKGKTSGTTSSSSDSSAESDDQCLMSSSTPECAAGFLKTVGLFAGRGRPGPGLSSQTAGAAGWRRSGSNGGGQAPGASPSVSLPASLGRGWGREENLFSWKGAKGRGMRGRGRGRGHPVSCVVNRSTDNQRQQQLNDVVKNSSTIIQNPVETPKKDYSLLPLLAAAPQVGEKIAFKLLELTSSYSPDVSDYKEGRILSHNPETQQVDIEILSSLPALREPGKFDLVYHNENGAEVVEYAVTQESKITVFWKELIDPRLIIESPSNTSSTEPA

Tests used:
[1] = biological target: coilin R36A fused to CFP or YFP (human) (UniProt P38432); assay: FRET or BRET; acceptor photobleaching FRET between CFP (donor) and YFP (acceptor) fusions co-expressed in HeLa cells, fixed in 2% paraformaldehyde; apparent FRET efficiency; Fig. 4c, d
coilin R36A-GFP (human) = coilin R36A-GFP (human) (UniProt P38432); assay: co-IP; coilin-GFP bait transfected into HeLa cells; Pierce lysis buffer with protease inhibitors, clarified lysate; goat anti-GFP overnight, Protein G magnetic beads, three washes; endogenous prey detected by Western blot
coilin D79A-GFP (human) = coilin D79A-GFP (human) (UniProt P38432); assay: as above
coilin R8A-GFP (human) = coilin R8A-GFP (human) (UniProt P38432); assay: as above
[2] = biological target: wild-type coilin-GFP (human) (UniProt P38432); assay: as above
[3] = biological target: coilin R8A fused to CFP or YFP (human) (UniProt P38432); assay: FRET or BRET; acceptor photobleaching FRET between CFP (donor) and YFP (acceptor) fusions co-expressed in HeLa cells, fixed in 2% paraformaldehyde; apparent FRET efficiency; Fig. 4c, d

Molecule: coilin R36A fused to CFP or YFP (from UniProt P38432 1-576)
- binding [1]: binds

Molecule: endogenous coilin (from UniProt P38432 1-576)
- binding (coilin R36A-GFP (human)): binds
- binding (coilin D79A-GFP (human)): binds
- binding (coilin R8A-GFP (human)): binds

Other lines, results leading:

- binding (coilin R36A-GFP (human)): no binding
- binding (coilin R8A-GFP (human)): no binding
- binding [2]: binds
B1: endogenous Nopp140 (protein, UniProt Q14978 1-699)
chain: MADAGIRRVVPSDLYPLVLGFLRDNQLSEVANKFAKATGATQQDANASSLLDIYSFWLKSAKVPERKLQANGPVAKKAKKKASSSDSEDSSEEEEEVQGPPAKKAAVPAKRVGLPPGKAAAKASESSSSEESSDDDDEEDQKKQPVQKGVKPQAKAAKAPPKKAKSSDSDSDSSSEDEPPKNQKPKITPVTVKAQTKAPPKPARAAPKIANGKAASSSSSSSSSSSSDDSEEEKAAATPKKTVPKKQVVAKAPVKAATTPTRKSSSSEDSSSDEEEEQKKPMKNKPGPYSSVPPPSAPPPKKSLGTQPPKKAVEKQQPVESSEDSSDESDSSSEEEKKPPTKAVVSKATTKPPPAKKAAESSSDSSDSDSSEDDEAPSKPAGTTKNSSNKPAVTTKSPAVKPAAAPKQPVGGGQKLLTRKADSSSSEEESSSSEEEKTKKMVATTKPKATAKAALSLPAKQAPQGSRDSSSDSDSSSSEEEEEKTSKSAVKKKPQKVAGGAAPSKPASAKKGKAESSNSSSSDDSSEEEEEKLKGKGSPRPQAPKANGTSALTAQNGKAAKNSEEEEEEKKKAAVVVSKSGSLKKRKQNEAAKEAETPQAKKIKLQTPNTFPKRKKGEKRASSPFRRVREEEIEVDSRVADNSFDAKRGAAGDWGERANQVLKFTKGKSFRHEKTKKKRGSYRGGSISVQVNSIKFDSE

- binding [3]: no binding
B2: Nopp140-YFP (protein, UniProt Q14978 1-699)
chain: B1 chain
